# Measured values: the supplement of paper PMC11417369
# This is one part of the list.
# Tested on: PfHDP1 homeodomain (GST-tagged)
# Experiment: gcPBM binding intensity (ln(normalized median fluorescence intensity)); higher = stronger DNA binding
# In short: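 Using an Agilent 4 × 180k array, primer-extended double-stranded 36-bp intergenic genomic probes and negative controls were exposed for 1 h to GST-fused P. falciparum DNA-binding domains expressed in E. coli. Binding was carried out in 1× PBS with 1% milk, 0.2 mg/ml BSA, 0.5% salmon testes DNA and 0.03% Triton X-100, and protein was detected with Alexa488 anti-GST antibody and a 488 nm scan. Binding intensity is the highest Masliner-normalised natural-log median intensity across replicate spots of either probe orientation.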
row,Sequence,gcPBM binding intensity (ln)
1,CACTACACTGTTAATAGTACATATATTTAAAAAAAA [XGTACX_site7371],6.73
2,ACATCATATTAAGAAAGTACAAAAAGAGAACATATA [XGTACX_site1268],7.14
3,AAACAAAATTTATTTCAAAGTTAATAATTTTTATGT [CACACA_negctrl_site232],5.84
4,ATATTGTAGATATTGTGTACATATTTTACAACTTTT [XGTACX_site7621],6.33
5,TATGTACACCCATATACACACCTCTATAATATATAT [CACACA_site4563],7.13
6,ATAAAAAATAAAATAAATAAAAAATATTTACCCTTA [TGCATGCA_negctrl_site396],5.92
7,TCATTAAAAACTAAAAGTACTCAATATTATGAACAT [XGTACX_site7807],6.39
8,TAAAAAAATAAATATACACACATATATATATATATA [CACACA_site1089],9.28
9,TGTAGAAATGGGTGCACACACATATAAAATCTATAT [CACACA_site7224],10.4
10,GGATTTATTATATATACACACATACAGATATATATA [CACACA_site5222],6.71
11,CATATATATTTGTTCACACACACACTAGAAAAAAAA [CACACA_site5380],6.72
12,AAATATAATATACAAAGTACTTTTTCATCTTATATA [XGTACX_site8771],6.26
13,AGACAATAATATAATCGTACAATAAATAAAATAAAA [XGTACX_site5231],6.77
14,AAAATAATCTTTTGATTGCACTGTTACATTTTTTCT [GTGCAC_site9563],7.41
15,TAAAGAGAAATATGTACATGCGAAAATGCCTTAAAT [TGCATGCA_site1050],7.04
16,TGAACAAAAAAAAATTGTACTTTTTTTTTAATATTT [XGTACX_site7172],6.03
17,TTTCTTCGAAATAGAACACTTGTGCAAAATAAGCAA [XGTACX_negctrl_site361],11.2
18,ATTTTTTTATAAAATTTTTATATAATTTATTATAAA [GTGCAC_negctrl_site96],6.3
19,AAAAAAAACAATCTCATACACACTAGGGATTAATTA [CACACA_site1776],6.17

row,Sequence,gcPBM binding intensity (ln)
1,ATATATATATATATATGTACATATTTTATAACTGTA [XGTACX_site5395],9.22
2,ATTTATACATATAAACGTACATACATATATAATATT [XGTACX_site2969],6.52
3,AACATAAAACGTAATATATTACAAATATAAACAATC [CACACA_negctrl_site1675],6.99
4,TTACCATTTGAAAATTCACACACTTTATTTTGTTAT [CACACA_site3799],6.77
5,TTTGGAATATTAATTGTGCACTTAAAAAGTTAATTA,9.76
6,CTTATGTGCATACCTACACACTTACATATATATATA [CACACA_site8973],9.47
7,TTAAATGTTGGTTGTAGTACTCCATATGTTGTTTTA [XGTACX_site5312],6.71
8,TGATACTGCAAAAAATATAAAAAAATAATAAAATAA [CACACA_negctrl_site791],6.34
9,TATATATATATAAGATGTACCCTTTGAAATAATAAT [XGTACX_site7215],8.66
10,TGGATAAAATAAAAATGTACTTAACATTTATATTTT [XGTACX_site712],6.28
11,AACAAAAGTAATTAAAAACAATACAAACATATGTTT [XGTACX_negctrl_site220],6.24
12,ATATATAGGTTCCCTTTTCTTTTTTTTTTTTTTTTT [CACACA_negctrl_site1159],6.25
13,ATCATTCAAAAATGCTGTACTAGGGGAAAACGTGTT [XGTACX_site7168],6.35
14,ATGTATGAAAAAATGTGTACATAATTTTTTTTTTTT [XGTACX_site5444],6.34
15,AAATAATATAAACATACACACACACCGATATATATA [CACACA_site8945],7.07
16,TTTCTAATTTATATCACACACATATAAATATAGTAA [CACACA_site6210],6.5
17,GGTGATATAATATATACATGCACATATATATTATTA [TGCATGCA_site970],9.05
18,TTACAAAAAAATAATTGTACATACAATTTCTGTTAT [XGTACX_site877],6.24
19,TTTATATGTATGAAGTGTACACATATATTGTATTTT [XGTACX_site5731],6.73

row,Sequence,gcPBM binding intensity (ln)
1,TATGGAAATATATATTGTACGTATGACCTTTAAAAA [XGTACX_site3935],6.45
2,ATTAGTTTACACATATGTACATATATTACAACAAAA [XGTACX_site275],7.06
3,TAAGATAAAAAAAATGCATGTTCTTATAATATTGTC [TGCATGCA_site939],6.46
4,GTAAGCATAAATATATGTACATACATATACAGATAT [XGTACX_site3361],6.46
5,ATATATATATATATATGTACATAATATATGTCCTAT [XGTACX_site5087],9.26
6,ATTATATCATCTAAAACATGCACACATATGTACTCT [TGCATGCA_site949],8.2
7,GTTGAGAAAATATGTGCATGTCAGGTTAAATTTTTA [TGCATGCA_site744],7.62
8,AATAAAAATAATGAATGTACATATATATATACAATA [XGTACX_site3342],6.09
9,ATATATAACGTGCACACACACATTTACGTATGAATA [CACACA_site6948],10.2
10,TATGACATATCCTGTAGTACAACGTATATATAAGAT [XGTACX_site1327],6.53
11,ATATATAATTTTTGCTGTACACAAAATATTAATTTA [XGTACX_site2057],7.22
12,TTTTATTAAAACCACGCATGCAGAGGAAACGGTGAG [TGCATGCA_site1029],7.24
13,TTCTGTATAATATAAAAACAAAAATTAAATTAAAAC [CACACA_negctrl_site81],6.43
14,CATAAAATATAAAACACACACACATATATATATATA [CACACA_site223],9.32
15,TATTATATAAATATACGTACATATACTAACCTTTTA [XGTACX_site6317],6.48
16,AAATTTTTTATTCTAATTAATATTTACACAATATAT [TGCATGCA_negctrl_site376],6.42
17,TTCCATGTAGGACATGCATGCAGTTTTTAAAATATT [TGCATGCA_site481],6.95
18,TTTTTTTCAATATTTGCACACGATTATAATATTTAA [CACACA_site2237],10.3
